The whole screen tested about 320,000 compounds, of which about 200 (0.062%) were called active. The shares of active, inactive and inconclusive entries below differ from those in the screen. Calls follow the shape of the dose curve; as a rule, active = well fitted activation curve with a large enough effect; inconclusive = small, poorly fitted or top-dose-only effect; inactive = no such curve, though single readings can be large or run the other way. No potency is given beside an inconclusive call; the fits are too rough.
Assay: qHTS assay for re-activators of p53 using a Luc reporter; also: nearly all actives have a fitted effect of over 45% in size
Settings: H1299 p53-A138V BP100-luciferase reporter, luminescence, 24 h; series mostly up to 92.2 µM
Summary of the method: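 H1299 (p53-null), stable ts p53-A138V + BP100-Luc; 1000 cells/well, Opti-MEM/10% FBS; cpd 4 pt, 1:5; 24 h, 37 deg C, 5% CO2; detection reagent 10 min RT; luminescence.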
Potency is read from the fitted curve at half-maximal effect; tags tell the direction and shape of the fitted curve.

Structure (SMILES)	Potency
COc1ccc2oc(C(=O)OCC(=O)NC3(C#N)CCCC3)c(C)c2c1	inactive
CNC(=O)c1[nH]cnc1C(=O)Nc1cccc(Cl)c1	inactive
CC(=O)Nc1ccc(/C(C)=N/NS(=O)(=O)c2ccc(C)cc2)cc1	inactive
CC1CCN(c2c(NCc3ccc(C(=O)N4CCN(C5CCCCC5)CC4)cc3)c(=O)c2=O)CC1	inactive
O=C(NC(=S)Nc1ccccn1)c1cccc([N+](=O)[O-])c1	inconclusive [activator, full curve, poor fit]
COc1ccc(C2CC(O)(C(C)(C)O)NO2)cc1 (stereo not drawn)	inconclusive [activator, partial curve, poor fit]
CCN(CC)c1ccc(/C=N/NC(=O)Nc2nonc2N)cc1	inconclusive [activator, single point]
O=C(c1ccccc1)c1ccc(OCC(O)CNCc2cccc(Cl)c2)cc1 (stereo not drawn)	inactive
Cc1ccc(-c2cc(C(F)F)n3ncc(C(=O)N4CCN(c5ccccn5)CC4)c3n2)cc1	inactive
Cc1ccc(C(C)CCN2CCC(n3nccc3NC(=O)c3ccccc3)CC2)o1 (stereo not drawn)	inconclusive [activator, partial curve, poor fit]
CSc1ccc(Cl)c(C(=O)NCCOc2ccccc2)c1	inactive
O=C(COc1ccc(Cl)cc1)c1ccc(O)cc1O	inconclusive [activator, single point]
OC(COc1ccc(Cl)cc1Cl)CN1CCc2ccccc2C1 (stereo not drawn)	inactive
Cn1c(CSc2nc3ccc(Br)cc3[nH]2)nc2ccccc21	inactive
CCCc1ccc(/C=C2\C(=O)c3ccccc3C(O)=C2C(=O)OCC)cc1	inconclusive [activator, partial curve]
CCOC(=O)c1c(C)[nH]c(C(=O)C(C)Sc2ccc(Cl)cc2)c1C (stereo not drawn)	inconclusive [activator, full curve, poor fit]
CC1CCC(=C(C#N)c2nc(-c3cc4ccccc4oc3=O)cs2)CC1 (stereo not drawn)	inconclusive [activator, partial curve, poor fit]
O=C(NC1CCCC1)C(c1ccncc1)N(Cc1ccco1)C(=O)c1ccc(-c2ccccc2)[nH]1 (stereo not drawn)	inconclusive [activator, single point]
COc1ccc(N=Nc2ccc(O)c3ncccc23)cc1	inactive
CCOc1ccc(C(=O)/C=C/Nc2ccc(S(=O)(=O)Nc3cc(C)nc(C)n3)cc2)cc1	inconclusive [activator, partial curve, poor fit]
O=C1/C(=C\Nc2ccc(OC(F)(F)F)cc2)CCN1c1ncccn1	inactive
CN(c1ccc(C(=O)Nc2ccc3c(c2)OCCO3)cc1)S(C)(=O)=O	inconclusive [activator, full curve, poor fit]
O=C(CC(=O)c1ccccc1O)c1ccc(F)cc1	inconclusive [activator, partial curve, poor fit]
O=C(CSc1ncccc1-c1nc2ccccc2[nH]1)NCc1ccco1	inconclusive [activator, partial curve, poor fit]
O=C(/C=C/c1ccccc1Cl)Nn1cnc2ccccc2c1=O	inconclusive [activator, partial curve, poor fit]

Structure (SMILES)	Potency
CCCC(=O)Nc1ccc(N2CCOCC2)cc1	inconclusive [activator, full curve, poor fit]
CC(=O)c1ccc(S(=O)(=O)NCC2(N3CCOCC3)CCCCC2)cc1	inactive
CCc1nnc(NC(=O)c2cc(Cl)ccn2)s1	inconclusive [activator, full curve, poor fit]
CC(NC(=S)NC(=O)c1ccccc1Br)c1ccccc1 (stereo not drawn)	inactive
CC(C)(C)C1CCC2(CC1)NC(=S)N(c1ccccc1)N2 (stereo not drawn)	inconclusive [activator, partial curve, poor fit]
Nc1nc(-c2ccccc2)cn1/N=C/c1ccccc1	inactive
COc1cc(/C=C/C(=O)NC(=O)c2ccccc2O)ccc1OC(C)=O	inconclusive [activator, full curve, poor fit]
Cc1ccc(/C=C2/NC(=O)N(c3ccccc3)C2=O)o1	inactive
O=C(CN1C(=O)NC2(CCCCCC2)C1=O)c1ccc2c(c1)OCCO2	inactive
COc1ccc(CN(C)C(=O)c2ccc3c(=O)n4c(nc3c2)CCC4)cc1	inconclusive [activator, partial curve, poor fit]
COc1ccc(N2CCN(C(=O)COC(=O)/C=C/c3ccc(C(F)(F)F)cc3)CC2)cc1	inconclusive [activator, partial curve, poor fit]
CC(C)(C)C(=O)NCCCc1nc2ccccc2n1CCCOc1ccc(Cl)cc1	inactive
CCn1c(COc2cccc(C)c2C)nnc1SCC(=O)N1CCN(c2ccc(OC)cc2)CC1	inactive
Cc1cc(C(=O)Nc2sc(C)c(C)c2C#N)no1	inconclusive [activator, full curve, poor fit]
CC(=O)Nc1sc2c(c1CN1CCN(c3ccccn3)CC1)CCCC2	inconclusive [activator, single point]
COc1cccc(C(c2nnnn2Cc2ccccc2)N2CCN(C3CCCC3)CC2)c1OC (stereo not drawn)	inconclusive [activator, single point]
C(=N\n1cnnc1)/c1cn(-c2cccs2)nc1-c1ccccc1	inactive
COc1ccccc1C(=O)Nc1cccc2cccnc12	inconclusive [activator, single point]
Cc1ccc(S(=O)(=O)N(Cc2ccccc2)c2ccccc2C(=O)N2CCCCC2)cc1	inactive
O=C(Nc1nc(-c2ccc(-c3ccccc3)cc2)cs1)c1cnccn1	inconclusive [activator, partial curve, poor fit]
CCn1c(-c2ccc(F)cc2)cnc1SCC(=O)N1CCCCC1C (stereo not drawn)	inconclusive [activator, full curve, poor fit]
COC(=O)c1cccc(-n2nnnc2SCC(=O)Nc2nc3c(s2)CCCC3)c1	inactive
COc1ccccc1NC(=O)Nc1nnc(C(C)C)s1	inconclusive [activator, partial curve, poor fit]
CCOC(=O)C1CCN(C(=O)C(CCSC)NC(=O)COc2ccccc2)CC1 (stereo not drawn)	inconclusive [activator, single point]
O=C(/C=C/c1cccc(F)c1)c1ccc(N2CCOCC2)cc1	inconclusive [activator, partial curve, poor fit]

Structure (SMILES)	Potency
CCS(=O)(=O)N1CCN(c2ccc([N+](=O)[O-])c(NC(C)c3ccccc3)c2)CC1 (stereo not drawn)	inactive
O=[N+]([O-])c1cc(S(=O)(=O)N2CCCC2)ccc1N/N=C1/CCCc2ccccc21	inactive
OC(CN1CCN(c2ccccc2F)CC1)c1ccc(F)cc1 (stereo not drawn)	inconclusive [activator, single point]
CC(C)(C)c1ccc(NC(=O)CSc2nnc(-c3n[nH]c4ccccc34)o2)cc1	inconclusive [activator, partial curve, poor fit]
Cc1ccccc1-c1nnc(-c2ccc(Br)cc2)o1	inconclusive [activator, partial curve, poor fit]
CCCn1c(N)c(C(=O)CSc2n[nH]c(-c3ccc(C)cc3)n2)c(=O)[nH]c1=O	inactive
Cn1cccc1-c1nc2ccc([N+](=O)[O-])cc2[nH]1	inconclusive [activator, partial curve, poor fit]
CCn1c(CSc2nc3ccccc3[nH]2)nc2cc(C(=O)O)ccc21	inactive
O=C(CCS(=O)(=O)c1ccccc1)Nc1nccs1	inconclusive [activator, partial curve, poor fit]
Cc1ccc2c(c1)/C(=C/c1ccc(F)cc1)C(=O)N2	inactive
CN(C(=S)Nc1ccc(F)cc1)C1(c2ccccc2Cl)CCCCC1=O (stereo not drawn)	inactive
CC(=O)Nc1nnc(C)s1	inconclusive [activator, single point]
COCC(=O)n1nc(-c2ccc(C)cc2)nc1NCc1ccc(F)cc1	inactive
CCn1c(=O)cc(SCC(=O)N2CCCCC2)c2ccccc21	inactive
COc1ccc(NC(=O)CN(C)C(=O)c2cc(-c3ccc(Cl)cc3)nc3ccccc23)cc1	inactive
COc1ccc2[nH]c(=O)c(-c3noc(-c4ccccc4)n3)cc2c1	inconclusive [activator, partial curve, poor fit]
NC(=O)c1ccsc1NC(=O)c1cc(=O)c2ccccc2o1	inconclusive [activator, full curve, poor fit]
COc1cc2ccccc2cc1C(=O)Nc1cccnc1	inconclusive [activator, partial curve, poor fit]
CC(C)(C)C(=O)n1nc(-c2ccccc2)oc1=O	inactive
Cc1ccc(C(=O)CC(=O)c2cccc(F)c2)c(O)c1	inconclusive [activator, partial curve, poor fit]
COC(=O)c1sc(NC(=O)c2ccoc2C)nc1C	inconclusive [activator, partial curve]
Cc1cccc2cc3c(nc12)-c1ccccc1C3=O	inconclusive [activator, full curve, poor fit]
COc1cc(S(=O)(=O)Nc2cccc(C)c2)ccc1N=Cc1c(C)[nH]n(-c2ccccc2)c1=O	inconclusive [activator, partial curve, poor fit]
